Reference: patent US20210138025A1, “CATIONIC PEPTIDES WITH IMMUNOMODULATORY AND/OR ANTI-BIOFILM ACTIVITIES” (priority 2018, published 2021)
At least one peptide structure holds a part that was inferred or is arguable (an end, a ring closure or a residue). Some entries repeat one wording, which the source may state once for all of them. Some results were stated once for a whole list of compounds, not compound by compound. No end group written: not given here.

Key:
[1] = test system: CCL5; assay: CCL5 production by peptide alone and in presence of Con A, canine cells (Table 21); format: cell-based; conditions: for Concentration of CCL5 in the absence of stimulation by LPS or ConA / % CCL5 production relative to that of LPS/ConA: peptide 32 μg/ml
Protocol: (§1) A subset of peptides was tested for stimulation of the chemokine CCL5 (Table 21).

[2] = test system: LPS stimulated monocytes; assay: Anti-inflammatory activity in LPS stimulated monocytes, bovine (Table 23); format: cell-based; conditions: 32 μg/ml peptide, negative = increase
[3] = test system: monocytes; assay: Cytokine production in unstimulated monocytes, bovine (Table 22); format: cell-based; conditions: background subtracted
Protocol: (§2) A subset of peptides was tested for stimulation of cytokine production in monocytes (Table 22). For the tested cytokines, the peptides tended to show anti-inflammatory activity rather than […] activity.

[4] = test system: MCP-1; assay: MCP-1 chemokine induction in human PBMCs, ELISA (Tables 6, 7; FIGS. 6-9, 13); format: cell-based; conditions: for MCP1 production in PBMC: SPOT synthesized peptide alone, ~25 μM, PBMCs from 3 human donors, Table 6
Protocol: Venous blood (20 ml) from healthy volunteers was collected in Vacutainer® collection tubes containing sodium heparin as an anticoagulant (Becton Dickinson, Mississauga, ON) in accordance with UBC ethical approval and guidelines. Blood was diluted 1:1 with complete RPMI 1640 medium and separated by centrifugation over a Ficoll-Paque® Plus (Amersham Biosciences, Piscataway, N.J., USA) density gradient. White blood cells were isolated from the buffy coat, washed twice in PBS and then resuspended in RPMI 1640 complete medium (containing 10% fetal bovine serum), and the number of peripheral blood mononuclear cells (PBMC) was determined by Trypan blue exclusion. PBMCs (5×10^5) were seeded into 12-well tissue culture dishes (Falcon; Becton Dickinson) at 0.75-1×10^6 cells/ml at 37° C. in 5% CO2. The above conditions were chosen to mimic conditions for circulating blood monocytes entering tissues at the site of infection via extravasation.
Following incubation of the cells under various treatment regimens, the tissue culture supernatants were centrifuged at 1000×g for 5 min, then at 10,000×g for 2 min to obtain cell-free samples. Supernatants were aliquoted and then stored at −20° C. prior to assay for various chemokines by capture ELISA (eBioscience and BioSource International Inc., CA, USA respectively)

[5] = test system: T-lymphocytes; assay: Anti-inflammatory activity towards stimulated T-lymphocytes, bovine (Table 25); format: cell-based; conditions: Bovine T-cells, 32 μg/ml of peptide
[6] = test system: CCL5; assay: CCL5 production by peptide alone and in presence of LPS, bovine cells (Table 21); format: cell-based; conditions: peptide 32 μg/ml
Protocol: as §1

[7] = test system: monocytes; assay: Cytokine production in unstimulated monocytes, canine (Table 22); format: cell-based; conditions: background subtracted
Protocol: as §2

[8] = test system: T-lymphocytes; assay: Cytokine production in T-lymphocytes, canine (Table 24); format: cell-based; conditions: no additional stimulant, background (NONE) subtracted
[9] = test system: PBMCs; assay: Cytotoxicity towards PBMCs, lactate dehydrogenase (LDH) release assay (Tables 6, 7); conditions: compared with 1018
[10] = test system: ConA stimulated monocytes; assay: Anti-inflammatory activity in ConA stimulated monocytes, canine (Table 23); format: cell-based; conditions: 32 μg/ml peptide, negative = increase
[11] = test system: T-lymphocytes; assay: Anti-inflammatory activity towards stimulated T-lymphocytes, canine (Table 25); format: cell-based; conditions: Canine T-cells, 32 μg/ml of peptide
[12] = test system: S. aureus (MRSA SAP0017); format: cell-based, Staphylococcus aureus; conditions: for % Residual MRSA biofilm growth compared to untreated control: SPOT synthesized peptide, ~12.5 μM, clinical MRSA strain, crystal violet assay
Protocol: Methods of assessment of anti-biofilm activity: MRSA S. aureus strain SAP0017 biofilm formation was initially analyzed using a static abiotic solid surface assay as described elsewhere (de la Fuente-Nunez et al., 2012) and shown graphically in FIG. 2. Dilutions (1/100) of overnight cultures were incubated in BM2 biofilm-adjusted medium [62 mM potassium phosphate buffer (pH 7), 7 mM (NH4)2SO4, 2 mM MgSO4, 10 μM FeSO4, 0.4% (wt/vol) glucose, 0.5% (wt/vol) Casamino Acids], or a nutrient rich medium such as Tryptic soy broth supplemented with 1% glucose, in polypropylene microtiter plates (Falcon, United States) in the absence (control) or presence of peptide. Peptide was added at time zero (prior to adding the diluted, overnight cultures) in varying concentrations, and the amount biofilm formation was recorded after 22-46 h incubation for most bacteria. To quantify biofilm growth, planktonic cells were removed and biofilm cells adhering to the side of the wells were stained with crystal violet, and absorbance at 595 nm was measured using a microtiter plate reader (Bio-Tek Instruments Inc., United States).

[13] = test system: T-lymphocytes; assay: Cytokine production in T-lymphocytes, bovine (Table 24); format: cell-based; conditions: no additional stimulant, background (NONE) subtracted
[14] = Peptide aggregation in sodium phosphate buffer, turbidity at 600 nm; format: physicochemical; conditions: 1 mg/ml peptide, sodium phosphate buffer pH 7.0, turbidity at 600 nm

In the case of “AVKWLGWILAKK-NH2 [Peptide 3016, AVKWLGWILAKK]”, the “Concentration of CCL5 in the absence of stimulation by LPS or ConA” value (“Concentration of CCL5” below) ([1]; Canine Monocyte) is reported as 112, the “Concentration of CCL5” value ([1]; Canine T-cells) is reported as 186 and the “% CCL5 production relative to that of LPS/ConA” value ([1]; Canine/ConA Monocyte) is reported as 43%. The “% CCL5 production relative to that of LPS/ConA” value ([1]; Canine/ConA T-cells) was 110%, the “suppression of CCL5 production from ConA stimulated monocytes (in words)” value ([1]; ConA stimulated monocytes) was “did not suppress CCL5 production” and the “% Monocyte cytokine decrease in presence of LPS/ConA, IFNγ” value [2] was 89.6%. For the same substance, the “% Monocyte cytokine decrease in presence of LPS/ConA, IL-2” value [2] was 77.3%, the “% Monocyte cytokine decrease in presence of LPS/ConA, IL-4” value [2] was 73.7% and the “% Monocyte cytokine decrease in presence of LPS/ConA, IL-6” value [2] was 16.5%. For the same substance, the “% Monocyte cytokine decrease in presence of LPS/ConA, IL-13” value [2] was 74.6%, the “% Monocyte cytokine decrease in presence of LPS/ConA, TNFα” value [2] was 11.8% and the “Concentration of Monocyte cytokine IFNγ in absence of additional stimulant” value [3] was 433 pg/mL. For the same substance, the “Concentration of Monocyte cytokine IL-2 in absence of additional stimulant” value [3] was -122 pg/mL, the “Concentration of Monocyte cytokine IL-4 in absence of additional stimulant” value [3] was -9 pg/mL and the “Concentration of Monocyte cytokine IL-6 in absence of additional stimulant” value [3] was 47 pg/mL. The “Concentration of Monocyte cytokine IL-13 in absence of additional stimulant” value [3] was 11 pg/mL, the “Concentration of Monocyte cytokine TNFα in absence of additional stimulant” value [3] was -306 pg/mL and the “MCP1 production in PBMC” value [4] was 852 pg/mL. The “% Cytokine decrease in the presence of LPS/ConA: IFNγ” value [5] was 96.7%, the “% Cytokine decrease in the presence of LPS/ConA: IL-2” value [5] was 73.8% and the “% Cytokine decrease in the presence of LPS/ConA: IL-4” value [5] was 59.4%. The “% Cytokine decrease in the presence of LPS/ConA: IL-6” value [5] was 0.6%, the “% Cytokine decrease in the presence of LPS/ConA: IL-13” value [5] was 91.6% and the “% Cytokine decrease in the presence of LPS/ConA: TNFα” value [5] was 46.8%. For the same substance, the “Concentration of CCL5” value ([6]; Bovine Monocyte) was 933, the “Concentration of CCL5” value ([6]; Bovine T-cells) was 200 and the “% CCL5 production relative to that of LPS/ConA” value ([6]; Bovine/LPS Monocyte) was 115%. The “% CCL5 production relative to that of LPS/ConA” value ([6]; Bovine/LPS T-cells) was 97%, the “Concentration of Monocyte cytokine IFNγ in absence of additional stimulant” value [7] was -96 pg/mL and the “Concentration of Monocyte cytokine IL-2 in absence of additional stimulant” value [7] was 109 pg/mL. The “Concentration of Monocyte cytokine IL-4 in absence of additional stimulant” value [7] was -201 pg/mL, the “Concentration of Monocyte cytokine IL-6 in absence of additional stimulant” value [7] was -123 pg/mL and the “Concentration of Monocyte cytokine IL-13 in absence of additional stimulant” value [7] was 13 pg/mL. For the same substance, the “Concentration of Monocyte cytokine TNFα in absence of additional stimulant” value [7] was -70 pg/mL, the “Concentration of T-cell cytokines in the absence of additional stimulant: IFNγ” value [8] was -89 pg/mL and the “Concentration of T-cell cytokines in the absence of additional stimulant: IL-2” value [8] was 3 pg/mL. The “Concentration of T-cell cytokines in the absence of additional stimulant: IL-4” value [8] was -30 pg/mL, the “Concentration of T-cell cytokines in the absence of additional stimulant: IL-6” value [8] was -44 pg/mL and the “Concentration of T-cell cytokines in the absence of additional stimulant: IL-13” value [8] was -118 pg/mL. The “Concentration of T-cell cytokines in the absence of additional stimulant: TNFα” value [8] was 35 pg/mL, the “toxicity: cytoxicity towards PBMCs and/or hemolysis towards RBCs (in words)” value (“toxicity … (in words)” for short) [9] was “low toxicity” and the “% Monocyte cytokine decrease in presence of LPS/ConA, IFNγ” value [10] was 57.4%. For the same substance, the “% Monocyte cytokine decrease in presence of LPS/ConA, IL-2” value [10] was 53.2%, the “% Monocyte cytokine decrease in presence of LPS/ConA, IL-4” value [10] was 43.5% and the “% Monocyte cytokine decrease in presence of LPS/ConA, IL-6” value [10] was 12.4%. The “% Monocyte cytokine decrease in presence of LPS/ConA, IL-13” value [10] was 15.6%, the “% Monocyte cytokine decrease in presence of LPS/ConA, TNFα” value [10] was 17.0% and the “% Cytokine decrease in the presence of LPS/ConA: IFNγ” value [11] was 66.8%. The “% Cytokine decrease in the presence of LPS/ConA: IL-2” value [11] was 56.1%, the “% Cytokine decrease in the presence of LPS/ConA: IL-4” value [11] was 47.6% and the “% Cytokine decrease in the presence of LPS/ConA: IL-6” value [11] was 26.4%. The “% Cytokine decrease in the presence of LPS/ConA: IL-13” value [11] was 28.0%, the “% Cytokine decrease in the presence of LPS/ConA: TNFα” value [11] was 0.4% and the “% Residual MRSA biofilm growth compared to untreated control” value (from here on “% Residual MRSA biofilm growth”) [12] was 102%. For the same substance, the “Concentration of T-cell cytokines in the absence of additional stimulant: IFNγ” value [13] was 90 pg/mL, the “Concentration of T-cell cytokines in the absence of additional stimulant: IL-2” value [13] was -35 pg/mL and the “Concentration of T-cell cytokines in the absence of additional stimulant: IL-4” value [13] was 18 pg/mL. The “Concentration of T-cell cytokines in the absence of additional stimulant: IL-6” value [13] was -48 pg/mL, the “Concentration of T-cell cytokines in the absence of additional stimulant: IL-13” value [13] was 57 pg/mL and the “Concentration of T-cell cytokines in the absence of additional stimulant: TNFα” value [13] was 280 pg/mL.

For “IAWQLLWGWRVR-NH2 [Peptide 3022, IAWQLLWGWRVR]”, the “MCP1 production in PBMC” value [4] was 600 pg/mL, the “toxicity … (in words)” value [9] was “low toxicity” and the “% Residual MRSA biofilm growth” value [12] was 96%.

In the case of “IQRWWKVWLKVI-NH2 [Peptide 3004, IQRWWKVWLKVI]”, the “aggregation in phosphate buffer (turbidity, in words)” value [14] is reported as “almost no aggregation”, the “aggregation in phosphate buffer (turbidity, in words)” value ([14]; listed as Peptide 3004) is reported as “considerably lower aggregation than 1018” and the “MCP1 production in PBMC” value [4] is reported as 1287 pg/mL. The “% Residual MRSA biofilm growth” value [12] was 29% and the “antibiofilm activity compared to 1018 (in words)” value ([12]; peptide >95% purity, static microtitre plate assay, MRSA) was “superior and/or equivalent anti-biofilm activity compared to peptide 1018”.

With “KKWQLLIKWKLR-NH2 [Peptide 3008, KKWQLLIKWKLR]” the “MCP1 production in PBMC” value [4] was 24444 pg/mL, the “MCP1 induction from PBMCs compared to 1018 (in words)” value ([4]; peptide >95% purity) was “stronger MCP1 inducing abilities than 1018” and the “toxicity … (in words)” value [9] was “low toxicity”. The “% Residual MRSA biofilm growth” value [12] was 49%.
